Source: patent publication US20180296663A1 (priority 2015, published 2018)

How the values were obtained:
HA protein [1] = tested on: HA protein
HA protein [2] = tested on: HA protein; remark: listed apart in the source

## HMGB1: high mobility group protein (HMGB) compound, which may act as an endogenous immunomodulator
HA protein [1]; BALB/c mice, i.m. days 0 and 21, adjuvant combined with HA-mRNA (R2564); day 14 after booster; […], FIG. 3)
  HA-specific IgG1 titers in sera: higher antibody titers
HA protein [1]; BALB/c mice, i.m. days 0 and 21, adjuvant combined with HA-mRNA (R2564); day 14 after booster; […], FIG. 4)
  HA-specific IgG2a titers in sera: higher antibody titers
HA protein [2]; Balb/c mice, i.m. days 0 and 21, 40 μg HA-mRNA (R2564) plus adjuvant, day 35 (day 14 after booster), compared to HA-mRNA alone (Example 2, FIG. 5)
  neutralizing antibody titers against the HA protein (HI antibody titer): higher neutralizing antibody titers

## Nc1nc2c(ncn2[C@@H]2O[C@@H]3COP(=O)(O)O[C@H]4[C@@H](O)[C@H](n5cnc6c(=O)[nH]c(N)nc65)O[C@@H]4COP(=O)(O)O[C@H]3[C@H]2O)c(=O)[nH]1 [c-di-GMP, cyclic diguanylate monophosphate]
HA protein [2]; in vivo
  neutralizing antibody titers against the HA protein: higher neutralizing antibody titers

## CC1=C(/C=C/C(C)=C/C=C/C(C)=C/C(=O)O)C(C)(C)CCC1 [ATRA, all-trans retinoic acid]
HA protein [1]; in vivo, sc
  HA-specific IgA titers in intestinal lavage: significant increase
  HA-specific IgA titers in sera: significant increase
